Experimental data from patent US20210228731A1, “ANTIBODY DRUG CONJUGATES FOR ABLATING HEMATOPOIETIC STEM CELLS” (NOVARTIS AG, priority 2018, published 2021).

Columns and labels:
rat cKIT = assay: Cross reactivity of cKIT antibodies to rat cKIT; assay type: binding
mouse cKIT = target: T1, mouse cKIT (Mus musculus, UniProt P05532); assay: Cross reactivity of cKIT antibodies to mouse cKIT; assay type: binding
T1 construct: 3.125-50 nM of cKIT receptor extracellular domains (ECD) were diluted in a 2-fold series; purchased Sino Biological Inc 50530-M08H
T1 sequence (P05532 25-527 limits assumed): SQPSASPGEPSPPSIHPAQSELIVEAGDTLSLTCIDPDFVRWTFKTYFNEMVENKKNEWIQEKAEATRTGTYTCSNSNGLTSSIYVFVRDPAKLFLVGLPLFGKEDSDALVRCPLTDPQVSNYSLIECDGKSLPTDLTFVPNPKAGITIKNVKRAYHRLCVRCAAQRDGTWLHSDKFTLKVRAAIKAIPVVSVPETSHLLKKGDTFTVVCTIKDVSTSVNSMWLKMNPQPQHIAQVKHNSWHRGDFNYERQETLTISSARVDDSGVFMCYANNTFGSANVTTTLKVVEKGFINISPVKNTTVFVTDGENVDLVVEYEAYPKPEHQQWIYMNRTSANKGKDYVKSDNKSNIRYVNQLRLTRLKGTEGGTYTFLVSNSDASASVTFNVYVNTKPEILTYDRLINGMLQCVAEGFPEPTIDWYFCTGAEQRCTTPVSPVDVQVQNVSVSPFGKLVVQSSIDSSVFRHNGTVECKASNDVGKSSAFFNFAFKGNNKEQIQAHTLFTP

[1] = system: human peripheral blood HSC-derived mast cells; assay: In vitro human mast cell degranulation assay (beta-hexosaminidase release); assay type: cell-based; conditions: test agents 0.006-25 nM cross-linked with antibody specific for the Fab portion; absence of SCF
Protocol: Mature mast cells were generated using CD34+ progenitors from mobilized peripheral blood. CD34+ cells were cultured in StemSpan SFEM (StemCell Technologies) supplemented with recombinant human stem cell factor (rhSCF, 50 ng/ml, Gibco), recombinant human interleukin 6 (rhIL-6, 50 ng/ml, Gibco), recombinant human IL-3 (30 ng/ml, Peprotech), GlutaMAX ([…], Gibco), penicillin (100 U/ml, Hyclone) and streptomycin (100 μg/ml, Hyclone). Recombinant hll-3 was added only during the first week of the culture. After the third week, half of the medium was replaced weekly with fresh medium containing rhIL-6 (50 ng/ml) and rhSCF (50 ng/ml). Mature mast cell purity was evaluated by surface staining of high-affinity IgE receptor (FCεRI, eBioscience) and CD117 (BD). […]
The derived mast cells were washed once to remove SCF, and the required amount of cells was incubated overnight in mast cell medium containing rhIL-6 (50 ng/ml) with or without rhSCF (50 ng/ml). […] During this incubation, p-nitro-N-acetyl-pi-D-gluosamine (pNAG, Sigma) buffer was prepared by sonicating 3.5 mg/ml of pNAG in citrate buffer (40 mM citric acid, 20 mM sodium phosphate dibasic, pH 4.5). β-hexosaminidase release was measured by mixing 20 μl of cell supernatant with 40 μl of pNAG solution in a flat-bottom 384-well plate. […] Absorbance was read using a plate reader at λ=405 nm with reference filter at λ=620 nm. […]

Molecule | Reactivity to rat cKIT (rat cKIT) | Reactivity to mouse cKIT (mouse cKIT) | mast cell degranulation (beta-hexosaminidase release) when cross-linked [1]
Anti-cKIT Ab4: full length anti-cKIT antibody, heavy chain SEQ ID NO: 71, light chain SEQ ID NO: 84 (antibody) heavy: QVQLQQSGPGLVKPSQTLSLTCAISGDSVSTNSAAWNWIRQSPSRGLEWLGRIYYRSQWLNDYAVSVKSRITINPDTSKNQFSLQLNSVTPEDTAVYYCARQLTYPYTVYHKALDVWGQGTLVTVSSASTKGPSVFPLAPSSKSTSGGTAALGCLVKDYFPEPVTVSWNSGALTSGVHTFPAVLQSSGLYSLSSVVTVPSSSLGTQTYICNVNHKPSNTKVDKRV[human IgG1 Fc left out] light: DIELTQPPSVSVSPGQTASITCSGDNLGDQYVSWYQQKPGQAPVLVIYDDTDRPSGIPERFSGSNSGNTATLTISGTQAEDEADYYCQSTDSKSVVFGGGTKLTVLGQPKAAPSVTLFPPSSEELQANKATLVCLISDFYPGAVTVAWKADSSPVKAGVETTTPSKQSNNKYAASSYLSLTPEQWKSHRSYSCQVTHEGSTVEKTVAPTECS | Yes | Yes | caused mast cell degranulation when cross-linked
Anti-cKIT Ab5: full length anti-cKIT antibody, heavy chain SEQ ID NO: 97, light chain SEQ ID NO: 110 (antibody) heavy: QVQLVQSGAEVKKPGESLKISCKGSGYSFTNYWIAWVRQMPGKGLEWMGIIYPSNSYTLYSPSFQGQVTISADKSISTAYLQWSSLKASDTAMYYCARVPPGGSISYPAFDHWGQGTLVTVSSASTKGPSVFPLAPSSKSTSGGTAALGCLVKDYFPEPVTVSWNSGALTSGVHTFPAVLQSSGLYSLSSVVTVPSSSLGTQTYICNVNHKPSNTKVDKRV[human IgG1 Fc left out] light: DIELTQPPSVSVSPGQTASITCSGDNIGSIYASWYQQKPGQAPVLVIYRDNKRPSGIPERFSGSNSGNTATLTISGTQAEDEADYYCSVTDMEQHSVFGGGTKLTVLGQPKAAPSVTLFPPSSEELQANKATLVCLISDFYPGAVTVAWKADSSPVKAGVETTTPSKQSNNKYAASSYLSLTPEQWKSHRSYSCQVTHEGSTVEKTVAPTECS | Yes | Yes | –
